53 compounds from PubChem BioAssay AID1346428 (National Center for Advancing Translational Sciences (NCATS), 2018) can be followed below.

Hit rate of the full screen: of about 48,000 compounds, about 1,200 (2.5%) were called active. Roughly 2% stayed inconclusive and do not appear here.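 How the source made its calls: active means activation of at least 60% and not above a set upper limit (about 1 call in 100 departs from these limits); inconclusive means activation of 40% to 60%, or above that upper limit; inactive means activation under 40%.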 Some of the results follow.

Chain of UniProt O75388 (O75388 whole entry, looked up): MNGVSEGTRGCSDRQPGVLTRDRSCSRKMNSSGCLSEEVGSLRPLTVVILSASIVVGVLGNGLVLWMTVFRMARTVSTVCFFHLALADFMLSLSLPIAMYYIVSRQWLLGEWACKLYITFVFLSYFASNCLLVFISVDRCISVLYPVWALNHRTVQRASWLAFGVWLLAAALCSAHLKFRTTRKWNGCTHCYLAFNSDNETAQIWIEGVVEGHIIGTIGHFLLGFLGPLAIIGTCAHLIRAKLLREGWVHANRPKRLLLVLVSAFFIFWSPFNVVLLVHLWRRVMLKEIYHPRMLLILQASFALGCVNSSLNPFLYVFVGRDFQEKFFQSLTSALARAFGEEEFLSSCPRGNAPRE

In this assay the target is Probable G-protein coupled receptor 32 (Homo sapiens) (UniProt O75388). As to the kind of experiment: qHTS for Agonists of Human Resolvin D1 Receptor DRV1. Further: 0% is about no effect. The settings on record: CHO-K1 GPR32 beta-arrestin PathHunter luminescence, 90 min; at 76.9 µM; stronger effect = higher value; zero percent set by DMSO-only wells. Put shortly:
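Cells are plated overnight, treated with compounds in DMSO for 90 minutes at 37 °C, and developed with PathHunter detection reagent for 1 hour before luminescence is read; signal reflects beta-arrestin binding to GPR32 in engineered CHO-K1 cells.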
(qHTS replaces the single test concentration by a dilution series.)
Turning to `COc1ccc(-c2noc(CCC(=O)NCc3ccc(C)cc3)n2)cc1`, the activation was inactive: -13.6%. On to `O=c1n(Cc2cccc(C(F)(F)F)c2)c2ccccc2c2nc(-c3ccccc3)nn12`, for which the activation is inactive: -8.98%. The figure for `Cc1ccc(-c2ccc(CCC(=O)O)n2-c2cccc(O)c2)cc1` is inactive: 0.316%; for `COc1ccc(-c2ccc(=O)n(CC(=O)Nc3ccc(C)cc3C)n2)cc1` it is inactive: -18.7%; for `Cc1ccc(C(=O)Nc2ccc3oc(-c4ccc(C(C)(C)C)cc4)nc3c2)cc1` it is inactive: -4.75%. The figure for `CCOC(=O)c1cccc(NC(=O)Cn2ncc3c4ccccc4n(Cc4ccccc4)c3c2=O)c1` is inactive: -19.6%; for `Cc1ccc(CNC(=O)CCCCCn2c(=O)c3sccc3n(CC(=O)N(C)c3ccccc3)c2=O)cc1` it is inactive: -2.8%; for `CSc1nn(Cc2ccc(Cl)cc2)c(N(C(C)=O)C(C)=O)c1S(=O)(=O)c1ccccc1` it is inactive: 17%.

Consider `CCc1ccc2oc(C(=O)Nc3cccc(C(F)(F)F)c3)cc(=O)c2c1`, for which the activation is inactive: 11.6%. The value for `Cc1ccc(NC(=O)c2cc(C)nc3c2c(C)nn3-c2cccc(Cl)c2C)c(C)c1` was inactive: -0.319%; that for `Cc1cccc(Cn2c(=O)n(CCc3ccccc3)c(=O)c3c(C)c(C)sc32)c1` was inactive: -0.38%; that for `C#CCOc1ccc(-c2nnc(Nc3cccc(C)c3)c3ccccc23)cc1` was inactive: -7.47%. The value for `Cc1ccc(NS(=O)(=O)c2ccc3[nH]c(=O)ccc3c2)cc1N(C)C` was inactive: 8.79%; that for `CCn1cc(C(=O)NCc2ccccc2OC)c(=O)c2cc(S(=O)(=O)N3CCCCC3)ccc21` was inactive: -9.3%; that for `COc1ccccc1CN1COc2ccc3c(oc(=O)c4ccccc43)c2C1` was inactive: -61.2%. The value for `COc1ccc(/C=C/C(=O)Nc2sc3c(c2C(N)=O)CCCC3)cc1` was inactive: -4.89%. Turning to `COc1cccc2sc(=NC(=O)c3ccc(S(=O)(=O)N4CCCCC4)cc3)n(C)c12`, the activation was inactive: 15.2%. Consider `CCOC(=O)c1cnc(NCc2ccccc2OC)c2ccccc12`, for which the activation was inactive: -30.4%. As to `COc1ccc(S(=O)(=O)N2CCCCC2)cc1C(=O)Nc1cccc(C(F)(F)F)c1`, the activation was inactive: -21.5%. The figure for `COc1ccccc1Nc1cc(C(=O)NC2CCCC2)c2ccccc2n1` is inactive: -8.15%; for `CCOC(=O)C1CCC(CN(Cc2ccc(Cl)cc2)S(=O)(=O)c2ccc(F)c(C(=O)Nc3cccc(F)c3)c2)CC1` (stereo not drawn) it is inactive: 11.1%; for `COc1ccc(N2CCN(C(=O)c3cc4ccc5cccnc5c4[nH]3)CC2)cc1` it is inactive: -21.9%. As to `COc1ccc(-c2cc(C)nc3c(-c4ccc(OC)c(OC)c4)c(C)nn23)cc1`, the activation was inactive: -23.8%. For `CSc1ccc(-c2nc3ccc(C)cn3c2Nc2ccccc2C)cc1`, the activation is inactive: -7.33%. In the case of `Cc1cccc(-c2nnn3c2nc(NCCc2ccc(S(N)(=O)=O)cc2)c2cc(Cl)ccc23)c1`, the activation is inactive: 27.1%. The figure for `CS(=O)(=O)N(CC(=O)NCCc1ccccc1)c1cc(C(F)(F)F)ccc1Cl` is inactive: -19.2%; for `Cc1cccc(Oc2nc3c(c(=O)n(C)c(=O)n3C)n2C)c1` it is inactive: -4.01%; for `CCCCCn1c(=O)[nH]c2cc(C(=O)N3CCN(c4cccc(C)c4)C(C)C3)ccc2c1=O` (stereo not drawn) it is active: 104%. As for `O=C(NCC12CC3CC(CC(C3)C1)C2)c1cc2nc(-c3ccccc3)cc(C(F)(F)F)n2n1`, the activation was inactive: -1.6%. The figure for `CC(NC(=O)c1ccccc1NC(=O)c1nsc2ccccc12)c1ccccc1` (stereo not drawn) is inactive: -22%.

For the compound `O=C1CCCc2cc(S(=O)(=O)NCC3CCC(C(=O)Nc4ccccc4F)CC3)ccc2N1` (stereo not drawn), the activation was inactive: 0%. With `Fc1cc(Br)ccc1Nc1c2c(nc3nc(-c4cccs4)nn13)CCCC2`, the activation is inactive: -51.1%.

Take `CNC(=O)c1cc(Nc2nnc(-c3ccc(O)cc3)c3ccccc23)ccc1OC`: the activation was inactive: 0.272%. The figure for `COC(=O)c1ccc(OC)c(Cn2c(=O)n(Cc3ccccc3)c(=O)c3c2c2cc(OC)ccc2n3C)c1` is inactive: -19.9%; for `CCCCOc1ccc(C(=O)N2CCN(CCc3ccccn3)CC2)cc1` it is inactive: 17%.

`CC(=O)c1ccc(NC(=O)C2=CC(c3ccc4c(c3)OCO4)=NS(=O)(=O)N2C)cc1`: the activation is inactive: -5.28%. The figure for `Cc1ccc(S(=O)(=O)Cc2nc(-c3ccc(C(=O)NCc4ccccc4)cc3)oc2C)cc1` is active: 77.2%. Take `CC1CCN(Cc2c(O)ccc3c(=O)c(-c4cccc(Cl)c4)c(C(F)(F)F)oc23)CC1`: the activation was inactive: -2.95%.

For the compound `CC(=O)c1cc2c(cc1NC(=O)c1c(C)nn(-c3ccc(C)cc3)c1-n1cccc1)OCO2`, the activation is inactive: -9.16%. For the compound `COc1cccc(N2CCN(C(=O)c3cnn(C(C)(C)C)c3C3CCN(C(=O)OC(C)(C)C)CC3)CC2)c1`, the activation was inactive: -11.1%. Turning to `O=C(c1ccc2c(c1)CCN2S(=O)(=O)c1ccccc1)N1CCN(c2ccc(F)cc2)CC1`, the activation was inactive: 1.72%. Regarding `COc1ccc(OCCn2cc(C(=O)C3CCCCC3)c3ccccc32)cc1`, the activation is inactive: -24.2%. Take `O=C(Nc1cccc(Br)c1)N1CCC(CN2CCCCC2)CC1`: the activation is inactive: 3.27%. With `Cc1ccc(NC(=O)CSc2nc3ncccc3[nH]2)cc1F`, the activation was inactive: 0.321%. The figure for `O=C(NCc1ccc(Cl)cc1)C(=O)Nc1ccc(Br)cc1` is inactive: -0.341%; for `CCc1cccc(NC(=O)Cn2c(=O)n(Cc3ccccc3)c(=O)c3c2c2cc(OC)ccc2n3C)c1` it is inactive: -0.644%; for `COC(=O)c1c(NC(=O)CCCOc2ccc(C(C)(C)C)cc2)sc2c1CCC(C)C2` (stereo not drawn) it is inactive: 0.607%.

As to `CCc1ccccc1NC(=O)Cn1c(-c2nonc2N)nc2ccccc21`, the activation is inactive: -8.9%.

As for `O=C(NCCc1csc(-c2ccc(Cl)cc2)n1)c1cccs1`, the activation was inactive: 33.2%. As to `CCN(C(=O)Cn1nc(Cc2cccnc2)c2ccccc2c1=O)c1ccccc1F`, the activation is inactive: -24.2%.

Turning to `O=S(=O)(Nc1ccc2oc3c(c2c1)CCCC3)c1cc(Cl)ccc1Cl`, the activation is inactive: 46.8%. For the compound `COc1ccc(NC(=O)/C(C#N)=C/c2ccc(OCc3cc(=O)n4nc(C)sc4n3)cc2)cc1`, the activation is inactive: -0.255%. The figure for `CC1CCN(C(=O)CSc2nnc(-c3ccccc3Cl)o2)CC1` is inactive: -4.05%.
